From paper PMC7819943, “Rice protein-binding microarrays: a tool to detect cis-acting elements near promoter regions in rice”
Some of the results follow.

target: T1, OsWOX13 (Oryza sativa, UniProt Q5QMM3 1-267); experiment: protein-binding microarray (RPBM); PBS, 2% BSA, 51.3 ng/ul salmon testes DNA, 50 uM zinc acetate, 200 nM TF, 25 C, 1 h; high values mean tight binding; conditions: protein: recombinant; tags: N-terminal polyhistidine and DsRed monomer fusion (pET32a); label: CyDye5-dUTP incorporated in the synthesized complementary strand; 3' TTTTT single-stranded linker to array surface; dsDNA, one strand shown
T1 sequence: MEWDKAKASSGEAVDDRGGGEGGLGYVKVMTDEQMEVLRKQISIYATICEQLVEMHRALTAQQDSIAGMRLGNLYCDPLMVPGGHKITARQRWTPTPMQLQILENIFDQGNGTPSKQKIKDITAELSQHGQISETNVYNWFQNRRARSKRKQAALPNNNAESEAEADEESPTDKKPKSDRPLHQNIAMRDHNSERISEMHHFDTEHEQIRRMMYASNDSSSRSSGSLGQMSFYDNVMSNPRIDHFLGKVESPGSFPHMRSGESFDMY
Outline: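 Polyhistidine-tagged DsRed fusions of transcription factors, joined at the N-terminus, were expressed in E. coli BL21-CodonPlus and isolated on Ni–NTA. They were incubated at 200 nM for 1 h at 25 °C on a custom Agilent array, double-stranded and BSA-blocked, in PBS with 2% BSA, salmon testes DNA and 50 µM zinc acetate. The binding signal is per-feature fluorescence intensity (arbitrary units) read on an Axon 4000B scanner after washing.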

Row | Sequence | binding signal
1 | CATTAATTAGATTGAGACAGTACTGAGATGATTGCCGCCCCGGAGTCACCTAGTGCAG | 65200 fluorescence intensity (a.u.)
2 | ATAGATTAGGGTTGGGGACTCGCGGCTGGGTGGCTGGGCGCGGAGTCACCTAGTGCAG | 3550 fluorescence intensity (a.u.)
3 | GTTTAAATCAGTTGGAATTTCAAGTTTCAAGTTTCTAGTCCGGAGTCACCTAGTGCAG | 3910 fluorescence intensity (a.u.)
4 | GCAGGATGTGATTAGCTGAAAAGAAAAGCAAAACGCACAACGGAGTCACCTAGTGCAG | 6430 fluorescence intensity (a.u.)
5 | GCATAATTGGCCTCGTTTAATTCATAATAGGCTTCTTAATCGGAGTCACCTAGTGCAG | 29300 fluorescence intensity (a.u.)
6 | TGTCGTATGATCTAAGACATTGATTATCATCGAACGGCAGCGGAGTCACCTAGTGCAG | 4880 fluorescence intensity (a.u.)
7 | TCTAATTGAGCTTCCTAAATATTATATTGGTGGCAAAGTTCGGAGTCACCTAGTGCAG | 27800 fluorescence intensity (a.u.)
8 | TAGATTAATTATGCATCCTCCGTTCCTCCAGCCGATCGATCGGAGTCACCTAGTGCAG | 16600 fluorescence intensity (a.u.)
9 | TCGTCAGGTTAATCAAGGGAGGATTGAACGAGATTTCGTGCGGAGTCACCTAGTGCAG | 5920 fluorescence intensity (a.u.)
10 | CAATGTAATTACACTGTAGTTACATTGTAATTACATTGTACGGAGTCACCTAGTGCAG | 15600 fluorescence intensity (a.u.)
11 | ACTTTTCAGTCACATCATCTTTAATTTCAACCAAAATCCACGGAGTCACCTAGTGCAG | 4420 fluorescence intensity (a.u.)
12 | GTTCTTAATTTAAGCCTCAACTTGATCCATAACTAAGATGCGGAGTCACCTAGTGCAG | 5070 fluorescence intensity (a.u.)
13 | GGTGGGTAGGGTTAATTTTGGTTGGAGGTAGAGAGAGAGACGGAGTCACCTAGTGCAG | 10300 fluorescence intensity (a.u.)
14 | TTAGCTAAAACTTAATTAATGACGCACTAAAACGCTGCTTCGGAGTCACCTAGTGCAG | 4390 fluorescence intensity (a.u.)
15 | GGAATCTCCAATCAAGGTGAATTAAAAGGAAGGTATATTTCGGAGTCACCTAGTGCAG | 14000 fluorescence intensity (a.u.)
16 | TGTGCGGGTGATTTGTTATAACGACGCGTGTGGTGGGGCACGGAGTCACCTAGTGCAG | 9030 fluorescence intensity (a.u.)
17 | CTTCAATCTAAACACAATTTTACCTTTGCCAAAATTAGCCCGGAGTCACCTAGTGCAG | 10800 fluorescence intensity (a.u.)
18 | TCTAATTGGGAAAAGAATGCAAGCTATGAGAGAAGGTGAACGGAGTCACCTAGTGCAG | 21100 fluorescence intensity (a.u.)
19 | ATTCTGATAAATTTCAACTAGAATATTTGACATGGAGATTCGGAGTCACCTAGTGCAG | 3920 fluorescence intensity (a.u.)
20 | TCAAAATTAGTTCTGTTCCACACCATGCAGTTATGCCAAGCGGAGTCACCTAGTGCAG | 4260 fluorescence intensity (a.u.)
21 | GTGACATTCACTGACTGGTGCGCGTGTGTTTTGTTTGCGTCGGAGTCACCTAGTGCAG | 6530 fluorescence intensity (a.u.)
22 | TACACATATTTCAATTAATCTTTATTTATTGTTTATTAATCGGAGTCACCTAGTGCAG | 8270 fluorescence intensity (a.u.)
23 | AAATTGATGATGGATGATATGAATATGCATGTCCCCATCACGGAGTCACCTAGTGCAG | 37300 fluorescence intensity (a.u.)
24 | CACATGTAATAATGACGATTTAATTAGGCTCAAAAGATTTCGGAGTCACCTAGTGCAG | 3740 fluorescence intensity (a.u.)
25 | AATATAATAGAGTAACTTTCCTATTATGTATTGGATAGACCGGAGTCACCTAGTGCAG | 3720 fluorescence intensity (a.u.)
26 | CCATCCAACCAATTAATTTAATTTAATAATAATAAATCTGCGGAGTCACCTAGTGCAG | 13700 fluorescence intensity (a.u.)
27 | GATTTAATTAATCCATTCCCCTTCTGGCATGCCGCTAGAACGGAGTCACCTAGTGCAG | 16300 fluorescence intensity (a.u.)

Row | Sequence | binding signal
28 | TTCCCAATATTAATTTGTCCGTTATGATTTCTGTTGCGTTCGGAGTCACCTAGTGCAG | 17300 fluorescence intensity (a.u.)
29 | GCAAATGCTTGACAGGAAACATTCAACTAGATCACATGGACGGAGTCACCTAGTGCAG | 3490 fluorescence intensity (a.u.)
30 | ATCTGATTGATACAGTACTTATTCACTGGAGTAGTATTTCCGGAGTCACCTAGTGCAG | 40800 fluorescence intensity (a.u.)
31 | TTTCTATAAATTAAAGGTCCCTTAAATTATTTAGGTCCAACGGAGTCACCTAGTGCAG | 4980 fluorescence intensity (a.u.)
32 | TTCCTAATTGTATTTCTATATGAACTCTATACTCTACTTCCGGAGTCACCTAGTGCAG | 19900 fluorescence intensity (a.u.)
33 | TTAGAGATATTGAAATTGATTGAGAGGGAACCAACAGATACGGAGTCACCTAGTGCAG | 30500 fluorescence intensity (a.u.)
34 | AAAACAAATTAAACTATCATATTTATTCACGGTCAAATTTCGGAGTCACCTAGTGCAG | 10100 fluorescence intensity (a.u.)
35 | TTATTAGTAAGAAATTTATAATTATACATTTTCATCTAAACGGAGTCACCTAGTGCAG | 6060 fluorescence intensity (a.u.)
36 | TCTGACTGAATTGATCGGGATTGAATTTCAAAATATCCATCGGAGTCACCTAGTGCAG | 51000 fluorescence intensity (a.u.)
37 | GTTGATAATTCAAATTTTAACTGATAAATATAAGGCAGGCCGGAGTCACCTAGTGCAG | 22500 fluorescence intensity (a.u.)
38 | CAAATAATTTTCATTAGAGGGATTAATGACTATATATGTCCGGAGTCACCTAGTGCAG | 15200 fluorescence intensity (a.u.)
39 | CTATTAATCATTGCCGATCGATTCCAACATGACATCGGCTCGGAGTCACCTAGTGCAG | 3720 fluorescence intensity (a.u.)
40 | TTTCTTAATATATGTCAATTTCAACTTTCCTATTTAAGCTCGGAGTCACCTAGTGCAG | 7750 fluorescence intensity (a.u.)
41 | TGAATTGATCGTGAGCTGATTGCAAGTTAAAACAATCTATCGGAGTCACCTAGTGCAG | 18600 fluorescence intensity (a.u.)
42 | CCAGATTACTATAATCCAATAATCTCCTCTAGAGGAGCTTCGGAGTCACCTAGTGCAG | 8790 fluorescence intensity (a.u.)
43 | TCCTAATTTAATTTGAGACCAACGAATTTGGTACAATTTTCGGAGTCACCTAGTGCAG | 11700 fluorescence intensity (a.u.)
44 | AAATAATTGTGCCTTATAATCCCTCCGTCCCAAAATAAGTCGGAGTCACCTAGTGCAG | 8170 fluorescence intensity (a.u.)
45 | CTCCACTAATTACTCCACCCAACCATTGGATTCAATGGGCCGGAGTCACCTAGTGCAG | 21700 fluorescence intensity (a.u.)
46 | TGGATGCATGACTGATGGTGATTGTGGTGCTGAAGATCAGCGGAGTCACCTAGTGCAG | 13600 fluorescence intensity (a.u.)
47 | CCGTGTAATTAGGCTAAGGCCACATTTAGCATAACTTTACCGGAGTCACCTAGTGCAG | 6160 fluorescence intensity (a.u.)
48 | TTAGGAGACTAAATTTGCCTGATTATAAATAGCTAAGCGCCGGAGTCACCTAGTGCAG | 11600 fluorescence intensity (a.u.)
49 | CCCATCCCAATCACATGGACCACGGCCCGCCACGTAAGCACGGAGTCACCTAGTGCAG | 7920 fluorescence intensity (a.u.)
50 | GTCCAAAACATCAATTAATATGGAACCGGAGGGAGTAGTACGGAGTCACCTAGTGCAG | 9040 fluorescence intensity (a.u.)
51 | TCTTTTCTTCCCTAATTGATCTCCTAGAGAGTTGAGAGTTCGGAGTCACCTAGTGCAG | 4660 fluorescence intensity (a.u.)
52 | ATTTGATTAACAGGCTGAATTCGTTCGAGAGATTTGATAACGGAGTCACCTAGTGCAG | 26900 fluorescence intensity (a.u.)
53 | TAGATGGTCAGATAGATTGAGCTAAGCACACACACACACTCGGAGTCACCTAGTGCAG | 6610 fluorescence intensity (a.u.)
54 | CGCACGTAAATTTTAAATTTTGTATTGGATTTGGTCTTTTCGGAGTCACCTAGTGCAG | 14600 fluorescence intensity (a.u.)
